This is an account of results in the RNAGym collection of RNA variant scans (doi:10.1101/gad.245936.114).

Variants at the background level are over-represented here.

B1: tRNA (parent)
chain: CUCUCGGUAGCCAAGUUGGUUUAAGGCGCAAGACUUUAAUUUAUCACUACGAAAUCUUGAGAUCGGGCGUUCGACUCGCCCCCGGGAGAUUUUUUCCUCGAGCAA

In this data set the parent is B1. Nature of the data set: nonsense suppression (GFP-seq) (ratio to wild type); higher = more function; SUP4oc tRNA, yeast GFP reporter sort-seq. An outline of the steps: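 To measure nonsense suppression, tRNA variants from a library carrying ~3% random mutations were integrated into the yeast genome alongside RFP and a GFP ochre reporter under galactose control. Growth took place in raffinose/galactose medium supplemented with 80 mg/L adenine, followed by sorting into GFP/RFP bins and Illumina sequencing of each bin (phred ≥30). For each variant with ≥100 reads and ≥30 cells, the bin median GFP/RFP values were weighted by its estimated cell share per bin and referenced to the unmutated parent tRNA.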
For C3U G26C C27U C68U G84A G85C A89C, the nonsense suppression was at most 0.026. The result for G7U C11U C27A U76C reads at most 0.026.

U76C A89U: the nonsense suppression was at most 0.026. The value for U57G C72G C77U G88C was at most 0.026; that for C27U G61C was 0.0306; that for G7U G66C G84C G86C was at most 0.026. For U4G U17G U63G, the nonsense suppression is at most 0.026. The value for U8C C75G was at most 0.026. The result for G6U C34G reads at most 0.026; that for U20A A24U G66A, at most 0.026; that for G28U G69U, at most 0.026. The value for A9C G78C G86U A89G was at most 0.026. As to G59C G61U G65A A87C, the nonsense suppression is at most 0.026. The value for G26U A60C was at most 0.026; that for U16A A62G U76G was at most 0.026; that for C56G A89U was at most 0.026.

As for A24C G65U C68G G86U, the nonsense suppression is at most 0.026. The value for U70G C82U was at most 0.026; that for A30G U63C was 0.205; that for U55C C64A was at most 0.026. Take A9U G86A: the nonsense suppression is 0.0496. Take G65C A87G: the nonsense suppression is at most 0.026. The value for G7U G28U U71G C72A G86U was at most 0.026. The result for C29A C75U C80A reads at most 0.026. On to C1U G7C, for which the nonsense suppression is at most 0.026.

U76A C80G: the nonsense suppression is at most 0.026. Regarding G19A C64A C82G, the nonsense suppression is at most 0.026. The value for G18A G86U was at most 0.026.

C1U C64G C75U A89G: the nonsense suppression was at most 0.026. Regarding C5G C83A, the nonsense suppression is at most 0.026. The result for G26A U63C U70G A89U reads at most 0.026; that for C5A U16C G85C A89C, at most 0.026.

With U17G C56G C83G, the nonsense suppression was at most 0.026. Regarding G6U C29A U35G U57G C72A, the nonsense suppression was at most 0.026. Consider C72U G84C, for which the nonsense suppression was at most 0.026. On to G78U G85C, for which the nonsense suppression stood at 0.0488. As for A23G A62U, the nonsense suppression was at most 0.026.

As for U21C C72U, the nonsense suppression was at most 0.026. The result for G7A A13G C27A A74G reads at most 0.026; that for U17A C27A, at most 0.026; that for G61A G69C C72G C77A, at most 0.026. In the case of C11G G19C C27G A60C G73U, the nonsense suppression was at most 0.026. For C34U A54G G61A C68A, the nonsense suppression is at most 0.026. The result for U8A G66U reads at most 0.026. With A23C A89G, the nonsense suppression is at most 0.026. For A60C G61C G73C, the nonsense suppression was at most 0.026. With G7U G26A G86C, the nonsense suppression is at most 0.026. The value for A13U G19U U21G A62C U63A was at most 0.026. The result for C3U A31G G86C reads at most 0.026.

Take U4G C12G: the nonsense suppression came out at 0.0311. The value for G7C U17A was at most 0.026; that for C3U G6A A13C G85A was at most 0.026; that for U16C U57C C68A was at most 0.026. The value for G61U U70G was at most 0.026; that for U17A A33C U76C C79A C80U was at most 0.026. The value for G7C A23U C77U was at most 0.026; that for U4C A24G A54G G67C was at most 0.026; that for U4C U17C A23U was at most 0.026. As to U2G A14U, the nonsense suppression is at most 0.026. With C3U U4G G25U C27G, the nonsense suppression is at most 0.026. The result for U2A G10U C29U U63C G67C reads at most 0.026; that for A14U A30G A31G A33C U57G G65A G69U G85U G86A, at most 0.026. The result for G26U U57G U58C reads at most 0.026; that for C29G G61U, at most 0.026. Consider U20C A24G G67A, for which the nonsense suppression is at most 0.026. As to U63A C68U, the nonsense suppression worked out at 0.755.

As for C3U C12G C34G, the nonsense suppression is at most 0.026. The result for C1A C3U C77G reads at most 0.026. The result for A33U U71A reads at most 0.026; that for U16C G66C C68A G78A, at most 0.026; that for C3A G15C G26A, at most 0.026.

For G18C A24C C56A, the nonsense suppression was at most 0.026. As to C5A A60G U70G G86C, the nonsense suppression was at most 0.026. On to U2G C34U, for which the nonsense suppression is at most 0.026. The value for G61C U70C C77A G84C was at most 0.026; that for G6U C77G was at most 0.026. The value for U4G A24G C77U was at most 0.026; that for C1A A33U C64U U70C C77A was at most 0.026. The result for U2G C3U U20C A23C G59A C72A reads at most 0.026. Regarding C12A G86U, the nonsense suppression is at most 0.026.

Consider U57A G69U C83U, for which the nonsense suppression is at most 0.026.

Turning to U4C G61U C79G A89G, the nonsense suppression is at most 0.026. Regarding U22A U76C, the nonsense suppression amounted to 0.967. For the variant G15A A31U U35C U76G C83G, the nonsense suppression was at most 0.026. The value for U58G C64U C80G was at most 0.026.

Turning to A23G A33G C68U, the nonsense suppression was at most 0.026.

Consider C11A G28U A62G U70G, for which the nonsense suppression is at most 0.026. Regarding G26A U35C A54U G61U C72U, the nonsense suppression was at most 0.026. Regarding G6A A14G G25U G86A, the nonsense suppression is at most 0.026. For A33C C68G, the nonsense suppression is at most 0.026. With A23G G73C, the nonsense suppression was at most 0.026. Regarding G6C A14U G66A, the nonsense suppression was at most 0.026. For the variant C5U A23U U57G G73U G86U, the nonsense suppression is at most 0.026.

Regarding G6A U63A, the nonsense suppression is at most 0.026.

In the case of C11G A23C G59C G78U, the nonsense suppression is at most 0.026. The result for C3G G67C reads at most 0.026; that for C5A C64G C72G, at most 0.026; that for A30G A33U U71A, at most 0.026. The result for A24U G85A A87G reads 0.215; that for U20C A30U G78U, at most 0.026. The value for C12G G32U U57C was at most 0.026; that for G7U C11U C56G was at most 0.026. As for C34A U58G G85C, the nonsense suppression is at most 0.026.

For the variant A30C A31C G67U, the nonsense suppression was at most 0.026. For U63A C82U, the nonsense suppression came out at 0.178. The value for G10U G15A A33G was at most 0.026; that for U21G A24G was at most 0.026; that for C1G C27G was at most 0.026. As for C3G G6U A9C U58A G85A, the nonsense suppression is at most 0.026. The result for G19U U21A G26U C34U U55G reads at most 0.026; that for A74U G86A, at most 0.026; that for A24G C72U C75U, at most 0.026. On to C5A U55G C81A G88A, for which the nonsense suppression was at most 0.026. The result for G19C G84U reads at most 0.026; that for U17A G32U U70G, at most 0.026; that for C1U G6C A14G, at most 0.026. The value for U8C A60C C79U was at most 0.026; that for A13C G19U U21C U63A U70G was at most 0.026; that for G7C A9C G18U G25U C81A was at most 0.026. Regarding A23C C68U G84C, the nonsense suppression was at most 0.026. The value for A30C C34U C81U C82U was at most 0.026. The value for G19U U58A was at most 0.026; that for C5U A30C G84C was at most 0.026. The value for C3U C27U A33G A60U C68A was at most 0.026; that for C29G C81G C83G was at most 0.026; that for U22A G26A was at most 0.026. For the variant U16A C56U A62U, the nonsense suppression was at most 0.026. With A33G G67U U76A A87C, the nonsense suppression was at most 0.026. The result for A54U G61C A74G reads at most 0.026; that for C34G C56G G88C, at most 0.026; that for C56U G59U C79U, at most 0.026.

Take G73A C79U C81G: the nonsense suppression was at most 0.026. The value for A9G C34G A54G G73C was at most 0.026; that for C5A C11U U57A A62U C75A was at most 0.026. Consider C5G U70C, for which the nonsense suppression was at most 0.026.

Consider C29U U58A, for which the nonsense suppression is at most 0.026.

Consider G15A U76A, for which the nonsense suppression was at most 0.026. The result for G6U C34U G73A reads at most 0.026; that for G15C U17A G28C U71C U76A, at most 0.026; that for A13U G15A, 0.046.

With G78U C79A, the nonsense suppression was at most 0.026. Regarding A14U U58A C75G, the nonsense suppression was at most 0.026. The value for A24U C81A G86U was at most 0.026. With C11U A14U C68G, the nonsense suppression is at most 0.026. On to A24C G69A, for which the nonsense suppression was at most 0.026.

Regarding G69A G84U, the nonsense suppression was at most 0.026.

On to G7C U22G G69A, for which the nonsense suppression was at most 0.026. The result for A13C C75G G88A reads at most 0.026; that for C75U G84A, at most 0.026. On to G7U U57C G88A, for which the nonsense suppression is at most 0.026.

For U20A U57G U58C, the nonsense suppression is at most 0.026.

In the case of G15U G86C, the nonsense suppression was at most 0.026.

As for A31U G73U, the nonsense suppression was at most 0.026. For the variant G25C U57C U70G, the nonsense suppression is at most 0.026. Consider G6C C11A G66A C80U C82G, for which the nonsense suppression was at most 0.026. For the variant C5A G15A G26U, the nonsense suppression is at most 0.026. Regarding U71C G73A, the nonsense suppression is at most 0.026. The result for G7A U22A G61A reads at most 0.026; that for A13G C56G U57C G67A, at most 0.026; that for G59A C77U G85U, at most 0.026.

Take G28A A31G U76G: the nonsense suppression was at most 0.026. The value for C5A U8C G15C A60C was at most 0.026; that for C3A G73U was at most 0.026; that for G67C C77G was at most 0.026. Turning to C1U C11U C75A, the nonsense suppression was at most 0.026.

In the case of C1U G32U G67A G88A, the nonsense suppression was at most 0.026.

As for U35A G88U, the nonsense suppression was at most 0.026.
